From PubChem BioAssay AID488969 (Vanderbilt High Throughput Screening Facility, 2010)
Over roughly 110,000 compounds, “z-score” has its median near -0.1; the highest 2% begin near 2. The list shows a part of the results. The source made the active and inactive calls.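 How the source made its calls: active means z-score in the third read window above 3 or below -3; inactive means the rest.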

What follows are compounds tested against Metabotropic glutamate receptor 8 (Rattus norvegicus) (UniProt P70579) (assay: mGluR8 Gi/Go-coupled signaling modulation – cell-based, rat, thallium flux, HTS, primary screen (AID 488969)). Conditions: HEK293 rat mGluR8, GIRK (G protein-gated inwardly rectifying potassium channel) thallium flux, FluoZin2; at 10 µM; stronger effect = higher value; submaximal glutamate (EC20) added with thallium.
UniProt P70579, sequence (P70579 whole entry, looked up): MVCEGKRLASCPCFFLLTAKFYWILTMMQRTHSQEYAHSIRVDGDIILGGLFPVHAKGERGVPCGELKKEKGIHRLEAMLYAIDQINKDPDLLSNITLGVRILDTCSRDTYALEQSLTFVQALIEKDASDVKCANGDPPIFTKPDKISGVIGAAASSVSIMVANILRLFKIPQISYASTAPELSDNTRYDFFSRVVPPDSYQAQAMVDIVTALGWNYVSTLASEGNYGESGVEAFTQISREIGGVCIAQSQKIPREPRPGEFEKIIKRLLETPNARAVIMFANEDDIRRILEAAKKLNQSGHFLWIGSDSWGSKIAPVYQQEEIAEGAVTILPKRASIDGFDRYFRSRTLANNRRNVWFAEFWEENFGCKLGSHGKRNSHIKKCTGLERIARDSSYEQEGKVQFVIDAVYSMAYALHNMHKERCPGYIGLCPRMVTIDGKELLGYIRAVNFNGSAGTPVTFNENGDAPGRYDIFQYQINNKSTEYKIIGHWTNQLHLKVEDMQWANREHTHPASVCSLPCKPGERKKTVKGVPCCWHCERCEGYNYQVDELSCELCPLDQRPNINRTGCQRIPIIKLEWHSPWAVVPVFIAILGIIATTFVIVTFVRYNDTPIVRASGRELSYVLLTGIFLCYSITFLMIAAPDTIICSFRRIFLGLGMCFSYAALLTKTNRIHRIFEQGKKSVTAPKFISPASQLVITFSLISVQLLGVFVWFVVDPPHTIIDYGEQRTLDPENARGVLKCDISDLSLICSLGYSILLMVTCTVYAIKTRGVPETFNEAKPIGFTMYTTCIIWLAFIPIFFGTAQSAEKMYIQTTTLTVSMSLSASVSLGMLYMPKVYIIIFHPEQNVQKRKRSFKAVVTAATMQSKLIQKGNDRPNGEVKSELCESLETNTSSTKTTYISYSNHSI
With `Nc1nc(-c2ccc([N+](=O)[O-])cc2)cs1` the z-score was -0.0935.
`Cc1cc(OCC(=O)NC2CCCCC2)ccc1Cl` gave a z-score of -0.17.
In the case of `COCCSc1ccccc1C(=O)NCCCn1ccnc1`, the z-score is reported as 0.00688.
`CCOC(=O)CSc1nnc(NC(=O)c2cc([N+](=O)[O-])cc([N+](=O)[O-])c2)s1` gave a z-score of -0.581.
Compound `CCOC(=O)C1=C(C)OC(N)=C(C#N)C1c1cc2c(cc1Br)OCO2` (centres undefined) has a z-score of -0.389.
Work on `CN1CCc2c(sc(/N=C/c3ccco3)c2C(N)=O)C1` yielded a z-score of -0.22.
Compound `COC(=O)c1ccccc1NC(=O)Nc1ccc2c(c1)OCO2` has a z-score of 0.207.
With `CCOc1ccc(NC(=O)CCC(=O)N/N=C/c2ccc([N+](=O)[O-])s2)cc1` the z-score was 2.1.
In the case of `CCOc1ccc(NC(=O)N(C2CCCCCC2)C2CCN(C(C)=O)CC2)cc1`, the z-score is reported as 0.205.
Compound `O=C1OCCC1Sc1nc(-c2ccccc2)cs1` (centres undefined) has a z-score of -1.82.
Work on `CN(C)c1ccc(/C=N/N(Cc2ccccc2)c2ccccc2)cc1` yielded a z-score of 0.172.
Work on `CCOC(=O)C1=C(C)N(C)C(C)=C(C(=O)OCC)C1c1ccccc1` yielded a z-score of -0.244.
Compound `Cc1[nH]nc2c1C1(C(=O)N(Cc3ccc(Cl)cc3)c3ccccc31)C(C#N)=C(N)O2` (centres undefined) has a z-score of -0.00904.
Compound `CCC(C)N(NC(C)=O)c1nc(Cl)nc(NC(C)C)n1` (centres undefined) has a z-score of -0.107.
With `CC1CCCC(NC(=S)NC(=O)c2cncc(Br)c2)C1C` (centres undefined) the z-score was active: 6.76.
`Cn1c(NC(=O)c2cc(-c3ccc4c(c3)OCO4)nc3ccccc23)cc(=O)n(C)c1=O` was tested, and the z-score was -0.115.
Work on `COc1ccc(-c2csc(/C=C/c3ccc4c(c3)OCO4)n2)cc1OC` yielded a z-score of -0.227.
Work on `CCOC(=O)C(C(=O)NCCCN1CCOCC1)C1CCCCC1` (centres undefined) yielded a z-score of -0.265.
With `Cc1cc(C)c(S(C)(=O)=O)c(S(=O)(=O)c2ccc(Cl)cc2)n1` the z-score was -0.0161.
With `CC(C)Cc1cc(-c2ccco2)c(C#N)c(N)n1` the z-score was 0.111.
`COc1ccc(N=C2C(=O)N3c4c(cccc42)C(C)=CC3(C)C)cc1` was tested, and the z-score was -0.0537.
In the case of `CC(C)Cc1nnc(NC(=O)CSc2ncn[nH]2)s1`, the z-score is reported as -1.31.
In the case of `Cc1ccccc1C(=O)Oc1ccccc1N1C(=O)C2CC=CCC2C1=O` (centres undefined), the z-score is reported as -0.132.
`O=C(Cc1ccc([N+](=O)[O-])cc1)Nc1nnc(C2CC2)s1` gave a z-score of 1.17.
`CCOc1ccc2cc(S(=O)(=O)n3ccnc3C)ccc2c1` gave a z-score of 0.917.
`CCOC(=O)c1c(NC(=O)c2cccs2)sc2c1CCCC2` was tested, and the z-score was 1.02.
`CCn1c(=O)c(=O)n(CC)c2cc(S(=O)(=O)N3CCc4ccccc43)ccc21` showed a z-score of -0.766.
In the case of `Cc1ccc(C(=O)N2CC(C)OC(C)C2)c(Cl)c1` (centres undefined), the z-score is reported as -0.0463.
In the case of `COc1cc(NC(=O)COC(=O)c2ccc(S(=O)(=O)N3CC(C)CC(C)C3)cc2)c(C)cc1[N+](=O)[O-]` (centres undefined), the z-score is reported as -0.41.
`CCN(C(=O)CN1CCN(S(=O)(=O)c2cc(Cl)ccc2Cl)CC1)c1c(N)n(Cc2ccccc2)c(=O)[nH]c1=O` showed a z-score of -0.194.
For `CCOC(=O)C1CCCN(C/C=C/c2ccccc2[N+](=O)[O-])C1` (centres undefined), the z-score was -0.267.
In the case of `COc1ccc(C2=CC(=O)OC3(CCCCC3)O2)cc1`, the z-score is reported as -2.37.
For `Cc1cc2cc(CNC(=O)c3ccc(S(=O)(=O)N4CCCCC4)cc3)ccc2[nH]1`, the z-score was 0.254.
`CCn1c(SCC(=O)c2ccc3ccccc3c2)nnc1-c1ccco1` showed a z-score of -0.531.
`CCOC(=O)N1CCN(CC(O)COCc2ccccc2)CC1` (centres undefined) showed a z-score of -0.292.
With `Cc1cc(C=O)c2c(c1)C=CC1(Oc3ccccc3C(=O)N1C)O2` (centres undefined) the z-score was -2.55.
In the case of `CCCOc1ccc(C2c3c(oc4ccccc4c3=O)C(=O)N2CCN(CC)CC)cc1OC` (centres undefined), the z-score is reported as 0.615.
For `c1ccc(CCNc2ncnc3c2nnn3Cc2ccccc2)cc1`, the z-score was -0.118.
With `COCCNC(=O)c1ccccc1NC(=O)c1ccccc1N(C)S(C)(=O)=O` the z-score was -0.163.
For `CCN(CC)C(=O)c1c[nH]c2ccc(S(=O)(=O)Nc3cc(C)cc(C)c3)cc2c1=O`, the z-score was -0.38.
For `CCCCCOC(=O)CSc1nc2c(c(=O)[nH]c(=O)n2C)n1Cc1ccc(Cl)cc1`, the z-score was 0.0777.
For `Cc1ccc(N(CC(=O)NC2CCC(C)CC2)S(=O)(=O)c2cccnc2)cc1` (centres undefined), the z-score was -0.173.
For `CCCCOc1ccc(NC(=O)c2cc(F)c(F)cc2Cl)cc1`, the z-score was -0.21.
`N#Cc1nc(-c2ccccc2)oc1NCC1CCCO1` (centres undefined) showed a z-score of -0.084.
With `O=c1c2sccc2nc(SCc2cc(=O)n3cc(Cl)ccc3n2)n1-c1ccc(F)cc1` the z-score was -1.07.
Work on `O=C(Nc1ccc(O)c(-c2nc3ccccc3o2)c1)C1(c2ccc(Cl)cc2)CCCC1` yielded a z-score of -0.181.
`CCNc1nc(NCC)nc(N/N=C/c2ccc([N+](=O)[O-])o2)n1` showed a z-score of -0.153.
Work on `Fc1ccc(Nc2ncnc3sc4c(c23)CCC4)cc1` yielded a z-score of 0.00391.
Compound `Cc1ccc(C)c(C(=O)CSc2nnnn2C(C)C)c1` has a z-score of -0.175.
`COc1cc(NC(=O)c2cc3nc(C4CC4)cc(C(F)(F)F)n3n2)c(OC)cc1Cl` gave a z-score of -0.0956.
`Cc1ccccc1-c1nc(CN2CCC(C(=O)NCCCN3CC(C)CC(C)C3)CC2)c(C)o1` (centres undefined) was tested, and the z-score was 2.43.
`Cc1ccc2c(C)nc(NC3=NCN(C(C)C)CN3)nc2c1` was tested, and the z-score was 0.123.
Compound `O=C(Nc1nc(-c2cccs2)c(-c2cccs2)s1)C1CCCC1` has a z-score of -0.821.
`CCCNC(=O)c1ccccc1NC(=O)CSCc1ccc(OC)cc1` showed a z-score of -0.46.
With `CCOCCCN1C(=O)CN(C2CCCCC2)C(=O)C1c1ccc(OC)c(OC)c1` (centres undefined) the z-score was -0.329.
`CCN1C(=O)CC(N2CCN(c3ccc(Cl)cc3)CC2)C1=O` (centres undefined) showed a z-score of 0.941.
`CC(C(=O)Nc1cccc([N+](=O)[O-])c1)N1CCN(C/C=C/c2ccccc2)CC1` (centres undefined) showed a z-score of 0.163.
`Cc1ccc(Cl)cc1N1CCN(Cc2nc3c(c(=O)[nH]c(=O)n3C)n2CCc2ccccc2)CC1` gave a z-score of 0.0775.
`Cc1ccc(C2=N/C(=C/N3CCOCC3)C(=O)O2)cc1` was tested, and the z-score was -0.011.
Compound `CC(Sc1nc(-c2ccccc2)cc(C(F)(F)F)n1)C(=O)N1CCC(C(N)=O)CC1` (centres undefined) has a z-score of -0.247.
`Cc1noc(C)c1S(=O)(=O)N1CCCC(C(=O)Nc2cccnc2)C1` (centres undefined) showed a z-score of -0.145.
Compound `C=CCn1c(=O)c2ccc(C(=O)NCc3ccccc3)cc2n(Cc2ccc(Cl)cc2)c1=O` has a z-score of 0.157.
`COc1ccc(CC2(C)OC(c3ccccc3)=NN2C(C)=O)cc1` (centres undefined) gave a z-score of -0.359.
`COc1ccc(OCC(=O)NCc2cccnc2)cc1` showed a z-score of 0.268.
`Cc1ccc(OCc2nnc(NC(=O)OCC(C)C)s2)c(C)c1` showed a z-score of -0.128.
`O=C(O)c1cccc(CSc2nnc(Cc3ccccc3)o2)c1` was tested, and the z-score was -0.337.
Compound `O=[N+]([O-])c1cc(-c2nc(-c3ccncc3)no2)cc([N+](=O)[O-])c1` has a z-score of 0.0493.
`Cc1csc(NC(=O)Cn2cnnn2)n1` showed a z-score of 1.29.
Work on `Cc1ccc(C(=O)N/C(=C/c2cccnc2)C(=O)NCc2ccco2)cc1` yielded a z-score of -0.102.
`Cc1cc(C)n(-c2cc(N3CCOCC3)nc(-c3ccccc3)n2)n1` gave a z-score of -0.147.
`CCOc1ccc(N(CC(=O)NCC2CCCO2)C(=O)CCC(=O)Nc2ccccn2)cc1` (centres undefined) showed a z-score of -1.08.
Work on `CCOC(=O)Nc1ccc2c(C)cc(=O)oc2c1` yielded a z-score of -0.0731.
`CCCCCn1c(-c2ccco2)nc2nc3ccccc3nc21` gave a z-score of -0.463.
Compound `CCCCNC(=O)c1ccc2c(=O)n(CCCOCC)c(=S)[nH]c2c1` has a z-score of 0.234.
With `Cc1onc(-c2ccccc2Cl)c1C(=O)NCC(=O)O` the z-score was -0.267.
With `Cc1ccc(C)c(S(=O)(=O)NCCOc2nc(NC(C)C)nc(NC(C)C)n2)c1` the z-score was 0.708.
For `COc1ccccc1-n1c(SC)nc(O)cc1=O`, the z-score was -0.633.
Compound `NC(=S)c1cc2ccc(O)cc2oc1=O` has a z-score of -0.0665.
Compound `CCOC(=O)c1cnc2c(C#N)c(C)nn2c1C` has a z-score of 0.0622.
For `Cc1ccc(OCc2nnnn2-c2ccccc2)cc1`, the z-score was -0.799.
Work on `O=C(Nc1cccc(Cl)c1N1CCCC1)c1cccc(-c2cc3ccccc3oc2=O)c1` yielded a z-score of -0.0492.
With `Cc1ccc2c(c1)[C@@H](O)C[C@@H](C)N2N=O` the z-score was -0.286.
For `COc1ccc(C)cc1S(=O)(=O)N(CC(=O)O)c1ccc(F)cc1`, the z-score was 0.306.
`CCOC(=O)C1=C(CN2CCOCC2)NC(=O)NC1c1cc(C)ccc1C` (centres undefined) showed a z-score of 1.13.
In the case of `O=C(CNC(=S)NC(=O)c1ccco1)c1ccccc1`, the z-score is reported as active: 6.42.
Work on `O=C(NCc1ccco1)c1cc2nc(-c3cccs3)cc(C(F)(F)F)n2n1` yielded a z-score of -0.0686.
`COc1ccc(OC)c(NC(=O)Nc2ccccc2C)c1` gave a z-score of -0.89.
Compound `CN(C(=O)c1ccncc1)C1CCS(=O)(=O)C1` (centres undefined) has a z-score of 0.517.
Work on `O=C(CN1CCN(C(=O)c2cccc(F)c2)CC1)Nc1ccccc1F` yielded a z-score of 1.22.
Work on `Cc1ccc(NC(=O)/C(Cl)=C/c2ccccc2)cc1C` yielded a z-score of 0.0751.
Compound `COC(=O)c1ccc(C2c3c(n[nH]c3C)C(=O)N2c2ccc(C)cc2)cc1` (centres undefined) has a z-score of -2.04.
For `CCOc1ccc2ccccc2c1/C=N/NC(=O)CC1(C)OCCCO1`, the z-score was -0.172.
In the case of `O=[N+]([O-])c1ccc(/C=N/Nc2nc(N3CCCC3)nc(N3CCCC3)n2)o1`, the z-score is reported as -0.62.
`C=C(C)COc1ccc(-c2ncncc2Oc2ccc(OC)cc2)c(O)c1` gave a z-score of -0.27.
For `O=C(c1cnccn1)N(Cc1ccco1)C1(C(=O)NC2CCCCC2)CCCCC1`, the z-score was -1.51.
`Cc1noc(C)c1C(=O)NC(C)c1ccc2c(c1)OCO2` (centres undefined) was tested, and the z-score was 0.275.
In the case of `Cc1ccc(/C(N)=N/OC(=O)COc2ccccc2Cl)cc1`, the z-score is reported as -0.637.
Work on `COc1ccccc1NC(=O)c1ccc(COc2ccc3c(c2)CCC3)cc1` yielded a z-score of -0.228.
With `Cc1ccc(-c2csc3nc(C)n(-n4c(C)ccc4C)c(=O)c23)o1` the z-score was 0.614.
Compound `O=C(N/C(=C/c1ccc(Br)cc1)c1nc2ccccc2[nH]1)c1ccco1` has a z-score of 0.0984.
Compound `CCc1nc(SCc2cccnc2)c(C#N)cc1C` has a z-score of 0.507.
`CC1=C(C(=O)Nc2cccnc2)C(c2ccc3c(c2)OCO3)C2=C(CCCC2=O)N1` (centres undefined) was tested, and the z-score was active: -4.47.
`Cc1nnc(SCc2cc(=O)[nH]c(N3CCCCC3)n2)s1` showed a z-score of 0.132.
In the case of `CCN(C(=O)CSc1nc2c(cnn2-c2ccccc2)c(=O)[nH]1)C1CCS(=O)(=O)C1` (centres undefined), the z-score is reported as -0.203.
`CN1CCC(=NNC(=O)C(=O)NC(C)(C)C)CC1` showed a z-score of -0.16.
With `O=c1c2ccc(Cl)cc2nc(-c2cccc(C(F)(F)F)c2)n1O` the z-score was active: 10.9.
For `CCCCC(CC)CNC(=O)C1C2C=CC(C2)C1C(=O)O` (centres undefined), the z-score was -0.128.
In the case of `O=C(Nc1nccs1)c1sc2ccccc2c1Cl`, the z-score is reported as -0.256.
`Cc1nn(-c2ccc(F)cc2)c(Cl)c1/C=N/NC(=O)c1cccc(S(=O)(=O)N2CCCC2)c1` showed a z-score of -0.115.
